Results taken from paper PMC12677587.
No constants are given. Whether binding was seen depends on the method and setting. For part of these data: Binding seen in cells or lysates may run through a third protein. Tags and fused reporters may be left off the sequences shown.

Key:
RFWD3-HA = biological target: T1, RFWD3-HA (UniProt Q6PCD5); assay: co-IP; ectopically expressed tagged proteins in HEK293T; lysis in NETN buffer (20 mM Tris-HCl pH 7.5, 1 mM EDTA, 100 mM NaCl, 0.5% NP-40); anti-FLAG or anti-HA affinity beads, 3 h, 4 °C; washes with NETN with 200 mM NaCl; western blotting
T1 sequence: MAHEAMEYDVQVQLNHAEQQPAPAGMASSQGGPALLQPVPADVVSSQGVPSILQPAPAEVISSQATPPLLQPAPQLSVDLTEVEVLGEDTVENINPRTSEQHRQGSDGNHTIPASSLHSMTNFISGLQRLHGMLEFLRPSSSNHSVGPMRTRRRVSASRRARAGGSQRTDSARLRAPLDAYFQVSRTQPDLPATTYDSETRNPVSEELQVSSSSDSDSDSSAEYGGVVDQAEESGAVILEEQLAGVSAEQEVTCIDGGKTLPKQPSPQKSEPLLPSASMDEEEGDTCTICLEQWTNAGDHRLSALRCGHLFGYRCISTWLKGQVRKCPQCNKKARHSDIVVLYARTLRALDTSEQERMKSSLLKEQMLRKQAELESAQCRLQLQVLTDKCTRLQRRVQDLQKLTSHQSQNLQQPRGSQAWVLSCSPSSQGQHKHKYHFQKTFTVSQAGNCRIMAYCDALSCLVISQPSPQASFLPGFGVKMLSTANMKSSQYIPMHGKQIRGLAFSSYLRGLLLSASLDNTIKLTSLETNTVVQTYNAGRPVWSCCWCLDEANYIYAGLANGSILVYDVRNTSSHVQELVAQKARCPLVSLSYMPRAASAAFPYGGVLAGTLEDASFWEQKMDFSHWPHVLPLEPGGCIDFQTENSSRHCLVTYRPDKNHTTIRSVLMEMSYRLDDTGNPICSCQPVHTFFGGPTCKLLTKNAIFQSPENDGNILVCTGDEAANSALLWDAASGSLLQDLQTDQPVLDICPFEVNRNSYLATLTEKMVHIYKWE

GST-RFWD3 = biological target: T2, GST-RFWD3 (UniProt Q6PCD5); assay: pull-down; GST pull-down: purified GST-RFWD3 on Glutathione resin, purified His-tagged UHRF1 proteins, 3 h at 4 °C in BCA buffer (20 mM Tris-HCl pH 7.4, 100 mM NaCl); washes with 300 mM NaCl; western blotting; both purified
T2 sequence: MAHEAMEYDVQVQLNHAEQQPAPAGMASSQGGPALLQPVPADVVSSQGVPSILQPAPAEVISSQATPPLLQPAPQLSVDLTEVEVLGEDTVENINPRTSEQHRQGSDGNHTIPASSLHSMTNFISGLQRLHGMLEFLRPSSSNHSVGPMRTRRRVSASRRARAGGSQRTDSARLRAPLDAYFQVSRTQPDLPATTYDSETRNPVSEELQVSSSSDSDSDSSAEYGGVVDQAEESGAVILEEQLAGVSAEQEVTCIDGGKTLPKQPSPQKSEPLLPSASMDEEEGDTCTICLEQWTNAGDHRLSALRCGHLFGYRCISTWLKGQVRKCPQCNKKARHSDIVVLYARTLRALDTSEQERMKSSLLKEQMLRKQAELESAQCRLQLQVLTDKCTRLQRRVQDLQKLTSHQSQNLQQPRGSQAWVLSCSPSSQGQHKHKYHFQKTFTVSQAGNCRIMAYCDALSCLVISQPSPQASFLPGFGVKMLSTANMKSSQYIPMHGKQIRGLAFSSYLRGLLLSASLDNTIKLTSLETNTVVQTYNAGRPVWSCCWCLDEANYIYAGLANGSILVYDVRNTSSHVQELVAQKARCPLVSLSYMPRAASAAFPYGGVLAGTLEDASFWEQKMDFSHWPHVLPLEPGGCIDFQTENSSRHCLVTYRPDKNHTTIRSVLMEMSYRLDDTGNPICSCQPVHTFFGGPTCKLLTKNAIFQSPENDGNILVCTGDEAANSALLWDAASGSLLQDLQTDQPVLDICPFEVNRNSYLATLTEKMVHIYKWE

B1: FLAG-UHRF1^NR2A (protein, UniProt Q96T88-1 1-793)
chain: MWIQVRTMDGRQTHTVDSLSRLTKVEELRRKIQELFHVEPGLQRLFYRGKQMEDGHTLFDYEVRLNDTIQLLVRQSLVLPHSTKERDSELSDTDSGCCLGQSESDKSSTHGEAAAETDSRPADEDMWDETELGLYKVNEYVDARDTNMGAWFEAQVVRVTRKAPSRDEPCSSTSRPALEEDVIYHVKYDDYPENGVVQMNSRDVRARARTIIKWQDLEVGQVVMLNYNPDNPKERGFWYDAEISRKRETRTARELYANVVLGDDSLNDCRIIFVDEVFKIERPGEGSPMVDNPMRRKSGPSCKHCKDDVNRLCRVCACHLCGGRQDPDKQLMCDECDMAFHIYCLDPPLSSVPSEDEWYCPECRNDASEVVLAGERLRESKKKAKMASATSSSQRDWGKGMACVGRTKECTIVPSNHYGPIPGIPVGTMWRFRVQVSESGVHRPHVAGIHGRSNDGAYSLVLAGGYEDDVDHGNFFTYTGSGGRDLSGNKRTAEQSCDQKLTNTNRALALNCFAPINDQEGAEAKDWRSGKPVRVVRNVKGGKNSKYAPAEGNRYDGIYKVVKYWPEKGKSGFLVWRYLLRRDDDEPGPWTKEGKDRIKKLGLTMQYPEGYLEALANREREKENSKREEEEQQEGGFASPRTGKGKWKRKSAGGGPSRAGSPRRTSKKTKVEPYSLTAQQSSLIREDKSNAKLWNEVLASLKDRPASGSPFQLFLSKVEETFQCICCQELVFRPITTVCQHNVCKDCLDRSFRAQVFSCPACRYDLGRSYAMQVNQPLQTVLNQLFPGYGAGA
With B1 the binding (RFWD3-HA) was “no binding”.

B2: His-UHRF1 truncation 1–724 (domain or fragment, UniProt Q96T88-1 1-724)
chain: MWIQVRTMDGRQTHTVDSLSRLTKVEELRRKIQELFHVEPGLQRLFYRGKQMEDGHTLFDYEVRLNDTIQLLVRQSLVLPHSTKERDSELSDTDSGCCLGQSESDKSSTHGEAAAETDSRPADEDMWDETELGLYKVNEYVDARDTNMGAWFEAQVVRVTRKAPSRDEPCSSTSRPALEEDVIYHVKYDDYPENGVVQMNSRDVRARARTIIKWQDLEVGQVVMLNYNPDNPKERGFWYDAEISRKRETRTARELYANVVLGDDSLNDCRIIFVDEVFKIERPGEGSPMVDNPMRRKSGPSCKHCKDDVNRLCRVCACHLCGGRQDPDKQLMCDECDMAFHIYCLDPPLSSVPSEDEWYCPECRNDASEVVLAGERLRESKKKAKMASATSSSQRDWGKGMACVGRTKECTIVPSNHYGPIPGIPVGTMWRFRVQVSESGVHRPHVAGIHGRSNDGAYSLVLAGGYEDDVDHGNFFTYTGSGGRDLSGNKRTAEQSCDQKLTNTNRALALNCFAPINDQEGAEAKDWRSGKPVRVVRNVKGGKNSKYAPAEGNRYDGIYKVVKYWPEKGKSGFLVWRYLLRRDDDEPGPWTKEGKDRIKKLGLTMQYPEGYLEALANREREKENSKREEEEQQEGGFASPRTGKGKWKRKSAGGGPSRAGSPRRTSKKTKVEPYSLTAQQSSLIREDKSNAKLWNEVLASLKDRPASGSPFQLFLSKVEETFQC
For B2, the binding (GST-RFWD3) was “no binding”.

B3: His-UHRF1 truncation 1–745 (domain or fragment, UniProt Q96T88-1 1-745)
chain: MWIQVRTMDGRQTHTVDSLSRLTKVEELRRKIQELFHVEPGLQRLFYRGKQMEDGHTLFDYEVRLNDTIQLLVRQSLVLPHSTKERDSELSDTDSGCCLGQSESDKSSTHGEAAAETDSRPADEDMWDETELGLYKVNEYVDARDTNMGAWFEAQVVRVTRKAPSRDEPCSSTSRPALEEDVIYHVKYDDYPENGVVQMNSRDVRARARTIIKWQDLEVGQVVMLNYNPDNPKERGFWYDAEISRKRETRTARELYANVVLGDDSLNDCRIIFVDEVFKIERPGEGSPMVDNPMRRKSGPSCKHCKDDVNRLCRVCACHLCGGRQDPDKQLMCDECDMAFHIYCLDPPLSSVPSEDEWYCPECRNDASEVVLAGERLRESKKKAKMASATSSSQRDWGKGMACVGRTKECTIVPSNHYGPIPGIPVGTMWRFRVQVSESGVHRPHVAGIHGRSNDGAYSLVLAGGYEDDVDHGNFFTYTGSGGRDLSGNKRTAEQSCDQKLTNTNRALALNCFAPINDQEGAEAKDWRSGKPVRVVRNVKGGKNSKYAPAEGNRYDGIYKVVKYWPEKGKSGFLVWRYLLRRDDDEPGPWTKEGKDRIKKLGLTMQYPEGYLEALANREREKENSKREEEEQQEGGFASPRTGKGKWKRKSAGGGPSRAGSPRRTSKKTKVEPYSLTAQQSSLIREDKSNAKLWNEVLASLKDRPASGSPFQLFLSKVEETFQCICCQELVFRPITTVCQHNVCK
For B3, the binding (GST-RFWD3) was “no binding”.

B4: His-UHRF1 truncation 1–750 (domain or fragment, UniProt Q96T88-1 1-750)
chain: MWIQVRTMDGRQTHTVDSLSRLTKVEELRRKIQELFHVEPGLQRLFYRGKQMEDGHTLFDYEVRLNDTIQLLVRQSLVLPHSTKERDSELSDTDSGCCLGQSESDKSSTHGEAAAETDSRPADEDMWDETELGLYKVNEYVDARDTNMGAWFEAQVVRVTRKAPSRDEPCSSTSRPALEEDVIYHVKYDDYPENGVVQMNSRDVRARARTIIKWQDLEVGQVVMLNYNPDNPKERGFWYDAEISRKRETRTARELYANVVLGDDSLNDCRIIFVDEVFKIERPGEGSPMVDNPMRRKSGPSCKHCKDDVNRLCRVCACHLCGGRQDPDKQLMCDECDMAFHIYCLDPPLSSVPSEDEWYCPECRNDASEVVLAGERLRESKKKAKMASATSSSQRDWGKGMACVGRTKECTIVPSNHYGPIPGIPVGTMWRFRVQVSESGVHRPHVAGIHGRSNDGAYSLVLAGGYEDDVDHGNFFTYTGSGGRDLSGNKRTAEQSCDQKLTNTNRALALNCFAPINDQEGAEAKDWRSGKPVRVVRNVKGGKNSKYAPAEGNRYDGIYKVVKYWPEKGKSGFLVWRYLLRRDDDEPGPWTKEGKDRIKKLGLTMQYPEGYLEALANREREKENSKREEEEQQEGGFASPRTGKGKWKRKSAGGGPSRAGSPRRTSKKTKVEPYSLTAQQSSLIREDKSNAKLWNEVLASLKDRPASGSPFQLFLSKVEETFQCICCQELVFRPITTVCQHNVCKDCLDR
In the case of B4, the binding (GST-RFWD3) is reported as “no binding”.

B5: His-UHRF1 truncation 1–753 (domain or fragment, UniProt Q96T88-1 1-753)
chain: MWIQVRTMDGRQTHTVDSLSRLTKVEELRRKIQELFHVEPGLQRLFYRGKQMEDGHTLFDYEVRLNDTIQLLVRQSLVLPHSTKERDSELSDTDSGCCLGQSESDKSSTHGEAAAETDSRPADEDMWDETELGLYKVNEYVDARDTNMGAWFEAQVVRVTRKAPSRDEPCSSTSRPALEEDVIYHVKYDDYPENGVVQMNSRDVRARARTIIKWQDLEVGQVVMLNYNPDNPKERGFWYDAEISRKRETRTARELYANVVLGDDSLNDCRIIFVDEVFKIERPGEGSPMVDNPMRRKSGPSCKHCKDDVNRLCRVCACHLCGGRQDPDKQLMCDECDMAFHIYCLDPPLSSVPSEDEWYCPECRNDASEVVLAGERLRESKKKAKMASATSSSQRDWGKGMACVGRTKECTIVPSNHYGPIPGIPVGTMWRFRVQVSESGVHRPHVAGIHGRSNDGAYSLVLAGGYEDDVDHGNFFTYTGSGGRDLSGNKRTAEQSCDQKLTNTNRALALNCFAPINDQEGAEAKDWRSGKPVRVVRNVKGGKNSKYAPAEGNRYDGIYKVVKYWPEKGKSGFLVWRYLLRRDDDEPGPWTKEGKDRIKKLGLTMQYPEGYLEALANREREKENSKREEEEQQEGGFASPRTGKGKWKRKSAGGGPSRAGSPRRTSKKTKVEPYSLTAQQSSLIREDKSNAKLWNEVLASLKDRPASGSPFQLFLSKVEETFQCICCQELVFRPITTVCQHNVCKDCLDRSFR
B5 was tested, and the binding (GST-RFWD3) was “no binding”.

B6: His-UHRF1 truncation 1–755 (domain or fragment, UniProt Q96T88-1 1-755)
chain: MWIQVRTMDGRQTHTVDSLSRLTKVEELRRKIQELFHVEPGLQRLFYRGKQMEDGHTLFDYEVRLNDTIQLLVRQSLVLPHSTKERDSELSDTDSGCCLGQSESDKSSTHGEAAAETDSRPADEDMWDETELGLYKVNEYVDARDTNMGAWFEAQVVRVTRKAPSRDEPCSSTSRPALEEDVIYHVKYDDYPENGVVQMNSRDVRARARTIIKWQDLEVGQVVMLNYNPDNPKERGFWYDAEISRKRETRTARELYANVVLGDDSLNDCRIIFVDEVFKIERPGEGSPMVDNPMRRKSGPSCKHCKDDVNRLCRVCACHLCGGRQDPDKQLMCDECDMAFHIYCLDPPLSSVPSEDEWYCPECRNDASEVVLAGERLRESKKKAKMASATSSSQRDWGKGMACVGRTKECTIVPSNHYGPIPGIPVGTMWRFRVQVSESGVHRPHVAGIHGRSNDGAYSLVLAGGYEDDVDHGNFFTYTGSGGRDLSGNKRTAEQSCDQKLTNTNRALALNCFAPINDQEGAEAKDWRSGKPVRVVRNVKGGKNSKYAPAEGNRYDGIYKVVKYWPEKGKSGFLVWRYLLRRDDDEPGPWTKEGKDRIKKLGLTMQYPEGYLEALANREREKENSKREEEEQQEGGFASPRTGKGKWKRKSAGGGPSRAGSPRRTSKKTKVEPYSLTAQQSSLIREDKSNAKLWNEVLASLKDRPASGSPFQLFLSKVEETFQCICCQELVFRPITTVCQHNVCKDCLDRSFRAQ
B6 was tested, and the binding (GST-RFWD3) was “no binding”.
